{
  "source": "paper PMC12136788",
  "binders": {"B1": {"name": "chr19:8913615:8913616:-_ENSMUSG00000071658_ENSMUST00000096259|mus_hu|mus_mus_mus_hu_False|8_88 (ssRNA)", "RNA": "GGGAGUUCUACAGUCCGACGAUCAGGGUACCAAAACCUUCUGCCUGAGAUAGGUGCCCCACCCAGUAGGGAGUUGCAGCUGAAAGUAUCUGAUGCAGAAGCAGUGACUAUACGAAAGGAGGCCCCUGAUGCUCAGAAGGCCAGCAACAGAGGAUUGAGCAUCA"}, "B2": {"name": "chr11:77340908:77340909:-_ENSG00000074201_ENST00000525064|hu_hu|hu_hu_hu_mus_True|48_98 (ssRNA)", "RNA": "GGGAGUUCUACAGUCCGACGAUCGUUUGGAUCCCUGGAUAAUGCAUGUAAACUAAUGGUGGGGUAUUCCAGUGAGAAUCCUAAUCCAGAGCCAUCUAACCAGGACAGGCGGCUCUCCGCGAUGUAAAGCGUGCCGGUGCCGAGCAACAGAGGAUUGAGCAUCA"}, "B3": {"name": "chr12:25693320:25693321:+_ENSMUSG00000036333_ENSMUST00000066652|mus_mus|FALSE|FALSE (ssRNA)", "RNA": "GGGAGUUCUACAGUCCGACGAUCGUCAACUCGGAAUAUAGCCAAAAGAGUAAUUCCAGCAAUAAUGCAGCCAACAAUAAAAAGAAAGAUUAUAAAAGACGGGAGACAGCAUGUUUUUUUCCAUUUCUUUUUACCCUGAGAAUCCAACAGAGGAUUGAGCAUCA"}, "B4": {"name": "chr11:46405157:46405158:+_ENSG00000110492_ENST00000395566|hu_hu|hu_hu_hu_mus_False|48_88 (ssRNA)", "RNA": "GGGAGUUCUACAGUCCGACGAUCCCCUCCCCACUUUGGGCACUUGGUGAGAGGGACAGAGGACAGGCGUGAUUGACAGAGCUGACAAGCAGACAGAAGGCACUGGUGGGUUAUAUCUUGGGCCUGUGGGAGAGGAGGGCUCCGCAACAGAGGAUUGAGCAUCA"}, "B5": {"name": "chr6:40426449:40426450:+_ENSMUSG00000029911_ENSMUST00000121360|perfect_dup|motif|central (ssRNA)", "RNA": "GGGAGUUCUACAGUCCGACGAUCGACAUCACCCAGUUGGUAAACUUCACUAUCCCCUGAUCGCCACAUCUCAUUAGUUGCGGGAGAAAAUAUUGUGACUGGAUUUUUUCCUUCCACCUGUCUCAAGACAGGGUCCUGACCCACCAACAGAGGAUUGAGCAUCA"}, "B6": {"name": "chr10:33190432:33190433:-_ENSG00000150093_ENST00000302278|hu_mus|hu_hu_hu_mus_True|38_88 (ssRNA)", "RNA": "GGGAGUUCUACAGUCCGACGAUCUACAUUUUCCAAACCUGCAUGUGAGUAAAACCAUGGCCACAGAGCCCCAAAACUACCCUACUGUGACUAAGAUAAUUGCUACUUGAGCUUGGUGUUGCAAAAUCCGCCUGAGUAGGAUUCCAACAGAGGAUUGAGCAUCA"}, "B7": {"name": "chr14:102368134:102368135:+_ENSG00000078304_ENST00000445439|hu_mus|motif|central (ssRNA)", "RNA": "GGGAGUUCUACAGUCCGACGAUCAAGAGGCUCCAUGAUCUUCACAAACUCUGAUGGUUCAAUUACAUCUAAAAUUUCUUCGGAUUCAUUUAAGAACAUUACUUCUUUUGGACUGUGAGUCUUUGGCCAGUAUUUGAGAAGUGCCAACAGAGGAUUGAGCAUCA"}, "B8": {"name": "chr4:140556289:140556290:+_ENSMUSG00000036622_ENSMUST00000037055|mus_mus|mus_mus_mus_hu_False|68_88 (ssRNA)", "RNA": "GGGAGUUCUACAGUCCGACGAUCGAUGGAGCUCACCAGGCCCCCUUUGGCUGUGCAGAACCCUGUGCGAGUCACCACUGCCAGGACGUGCGGUCCCACAUAGGCCCGGGCCUGCAAGAUGAGGGUCCCGCAGAAGAGUGUGUGCAACAGAGGAUUGAGCAUCA"}, "B9": {"name": "chr13:97419678:97419679:-_ENSMUSG00000021670_ENSMUST00000022176|mus_hu|motif|central (ssRNA)", "RNA": "GGGAGUUCUACAGUCCGACGAUCUUUUAUUACAACAUAUACAGAUUUGAUACAGUUUACAAAAAAAACUAGAUUUUUCAACGGAAUAAAAAUGUCUUUUAAGCAAUUAAAGUUGGCUUAGAGACAUGGUAUUUUUCUUUCAAACAACAGAGGAUUGAGCAUCA"}, "B10": {"name": "chr7:32526834:32526835:-_ENSG00000106355_ENST00000409292|hu_hu|motif|central (ssRNA)", "RNA": "GGGAGUUCUACAGUCCGACGAUCUAGAAAGUGGGAAAAAAAAUUCCAUUUUCUUGUCAUUAUAAGCCAAAACAAAAUCGGGUGUAAGUCAAGGAAACUCAUUCACACUUCAGGUCCUUCUCCUCCAGGAACCAGCAUUGUUAUCAACAGAGGAUUGAGCAUCA"}, "B11": {"name": "chr12:16043544:16043545:+_ENSG00000023734_ENST00000419869|hu_mus|motif|central (ssRNA)", "RNA": "GGGAGUUCUACAGUCCGACGAUCUUUGUUCAAGUCAUAUAUGCGCAGCAGUUUAUCCUGUCCCCCAGUUAGCAGGUAAUUGCGGUCCUGUGUGAAAUCCACAGUCUUGACAAUGUGCUUAUGAGCCAGGGUCAUCAAUUCAUCCAACAGAGGAUUGAGCAUCA"}, "B12": {"name": "chr14:66209396:66209397:-_ENSMUSG00000022031_ENSMUST00000022609|mus_hu|motif|central (ssRNA)", "RNA": "GGGAGUUCUACAGUCCGACGAUCAGAUCGAUGUCUUUCCCCUGCUCGUGGGCUUCAAUCAGUUGUUUAAUAACAUCUCCGGUAGUCAGCAUCAUCAGCUCAGCAGGGCUGAGAUCUCCAGACUAUGGAGGAUUCACCACCAGACAACAGAGGAUUGAGCAUCA"}, "B13": {"name": "chr1:66480114:66480115:+_ENSMUSG00000015222_ENSMUST00000024639|mus_mus|motif|central (ssRNA)", "RNA": "GGGAGUUCUACAGUCCGACGAUCUGGCCUGUGACGGAUGUUCUUUAGAGAGCCACAUUUGGAUGUCACAUGGCUUAAGUCGGUCUUCUUAGUAACAAUUUGUACCUGACCCCCCUUAGGCUGGUAUUUGAUGUUGUCAGUUGACAACAGAGGAUUGAGCAUCA"}, "B14": {"name": "chr1:66463027:66463028:+_ENSMUSG00000015222_ENSMUST00000114013|mus_hu|motif|central (ssRNA)", "RNA": "GGGAGUUCUACAGUCCGACGAUCUUUUCUUUCAGGAGUGGAAAUUCUGCCUCUCCCGGUUUUAAAAGGCUUUUCUUUUCGGUGUUUCUCAAGAGAUGAUCUCCGAGCUUCCUUUUCAGCUUUCUCCUCUUUAGGAAUAGUUUCCAACAGAGGAUUGAGCAUCA"}},
  "note": "This is one part of the list.",
  "data": [
    {"molecular_target": "T1, UNK ZnF1-3 (human, UniProt Q9C0B0 31-174)", "T1 sequence": "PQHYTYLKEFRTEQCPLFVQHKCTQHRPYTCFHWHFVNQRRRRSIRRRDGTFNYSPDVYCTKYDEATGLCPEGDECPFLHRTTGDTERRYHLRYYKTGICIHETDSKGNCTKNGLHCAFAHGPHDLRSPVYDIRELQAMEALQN", "assay": "nsRBNS (natural sequence RNA bind-n-seq); RBNS binding buffer (assumed for nsRBNS): 25 mM Tris pH 7.5, 150 mM KCl, 3 mM MgCl2, 0.01% Triton X-100, 500 ug/ml BSA, 20 U/ml SUPERase-In, 4 C; UNK is unkempt and MSI1 is Musashi-1; names of the RNAs are library labels; protein concentration not given here; high values mean tight binding", "units": {"binding signal": "enrichment R"}, "values": [
      {"binder": "B1", "binding signal": 0.988},
      {"binder": "B2", "binding signal": 1.54},
      {"binder": "B3", "binding signal": 1.94},
      {"binder": "B4", "binding signal": 2.9},
      {"binder": "B5", "binding signal": 0.941},
      {"binder": "B6", "binding signal": 0.923},
      {"binder": "B7", "binding signal": 0.747},
      {"binder": "B8", "binding signal": 1.15},
      {"binder": "B9", "binding signal": 0.839},
      {"binder": "B10", "binding signal": 1.35},
      {"binder": "B11", "binding signal": 1.01},
      {"binder": "B12", "binding signal": 0.753},
      {"binder": "B13", "binding signal": 0.53},
      {"binder": "B14", "binding signal": 0.426}
    ]}
  ]
}
